Positions count from the first letter of the chain named. This is one part of the list.

T1: RBFOX1 RRM RbFoxmut (Fox-RRM*) (Homo sapiens, UniProt Q9NWB1 109-208, R118D;E147R;N151S;E152T)
T1 sequence: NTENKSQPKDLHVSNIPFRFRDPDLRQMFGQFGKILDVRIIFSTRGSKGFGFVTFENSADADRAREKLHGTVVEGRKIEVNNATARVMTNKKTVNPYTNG

B1: GCAGGGU (DNA:RNA)
RNA: GGGAGACCGGAAUUCAGAUUGUCCGCAGGGUUUAAAUCCCGUCGUAGCCACCA
DNA 1: CAATCTGAATTCCGGTCTCCC
DNA 2: TGGTGGCTACGACGGGATT
B2: CCUUAGA (DNA:RNA)
RNA: B1 RNA with G25C, A27U, G28U, G29A, U31A
DNA 1: CAATCTGAATTCCGGTCTCCC
DNA 2: TGGTGGCTACGACGGGATT
B3: GAUAGCA (DNA:RNA)
RNA: B1 RNA with C26A, A27U, G28A, G30C, U31A
DNA 1: CAATCTGAATTCCGGTCTCCC
DNA 2: TGGTGGCTACGACGGGATT
B4: CUUAGAU (DNA:RNA)
RNA: B1 RNA with G25C, C26U, A27U, G28A, G30A
DNA 1: CAATCTGAATTCCGGTCTCCC
DNA 2: TGGTGGCTACGACGGGATT
B5: CAUAGAA (DNA:RNA)
RNA: B1 RNA with G25C, C26A, A27U, G28A, G30A, U31A
DNA 1: CAATCTGAATTCCGGTCTCCC
DNA 2: TGGTGGCTACGACGGGATT
B6: UGGUUCU (DNA:RNA)
RNA: B1 RNA with G25U, C26G, A27G, G28U, G29U, G30C
DNA 1: CAATCTGAATTCCGGTCTCCC
DNA 2: TGGTGGCTACGACGGGATT
B7: AAUCUGG (DNA:RNA)
RNA: B1 RNA with G25A, C26A, A27U, G28C, G29U, U31G
DNA 1: CAATCTGAATTCCGGTCTCCC
DNA 2: TGGTGGCTACGACGGGATT
B8: GGUGCCG (DNA:RNA)
RNA: B1 RNA with C26G, A27U, G29C, G30C, U31G
DNA 1: CAATCTGAATTCCGGTCTCCC
DNA 2: TGGTGGCTACGACGGGATT
B9: CGAUGAC (DNA:RNA)
RNA: B1 RNA with G25C, C26G, G28U, G30A, U31C
DNA 1: CAATCTGAATTCCGGTCTCCC
DNA 2: TGGTGGCTACGACGGGATT
B10: CUGGUUA (DNA:RNA)
RNA: B1 RNA with G25C, C26U, A27G, G29U, G30U, U31A
DNA 1: CAATCTGAATTCCGGTCTCCC
DNA 2: TGGTGGCTACGACGGGATT
B11: UACCAGA (DNA:RNA)
RNA: B1 RNA with G25U, C26A, A27C, G28C, G29A, U31A
DNA 1: CAATCTGAATTCCGGTCTCCC
DNA 2: TGGTGGCTACGACGGGATT
B12: UUCCGUU (DNA:RNA)
RNA: B1 RNA with G25U, C26U, A27C, G28C, G30U
DNA 1: CAATCTGAATTCCGGTCTCCC
DNA 2: TGGTGGCTACGACGGGATT
B13: CCGCUCG (DNA:RNA)
RNA: B1 RNA with G25C, A27G, G28C, G29U, G30C, U31G
DNA 1: CAATCTGAATTCCGGTCTCCC
DNA 2: TGGTGGCTACGACGGGATT
B14: GUCAUUA (DNA:RNA)
RNA: B1 RNA with C26U, A27C, G28A, G29U, G30U, U31A
DNA 1: CAATCTGAATTCCGGTCTCCC
DNA 2: TGGTGGCTACGACGGGATT
B15: CUUAAAU (DNA:RNA)
RNA: B1 RNA with G25C, C26U, A27U, G28A, G29A, G30A
DNA 1: CAATCTGAATTCCGGTCTCCC
DNA 2: TGGTGGCTACGACGGGATT
B16: UGUUAUG (DNA:RNA)
RNA: GGGAGACCGGAAUUCAGAUUGUCCUGUUAUGUUAAAUCCCGUCGUAGCCACCA
DNA 1: CAATCTGAATTCCGGTCTCCC
DNA 2: TGGTGGCTACGACGGGATT
B17: GGCGCUC (DNA:RNA)
RNA: B1 RNA with C26G, A27C, G29C, G30U, U31C
DNA 1: CAATCTGAATTCCGGTCTCCC
DNA 2: TGGTGGCTACGACGGGATT
B18: AAAAGCU (DNA:RNA)
RNA: B1 RNA with G25A, C26A, G28A, G30C
DNA 1: CAATCTGAATTCCGGTCTCCC
DNA 2: TGGTGGCTACGACGGGATT
B19: CUCGACA (DNA:RNA)
RNA: B1 RNA with G25C, C26U, A27C, G29A, G30C, U31A
DNA 1: CAATCTGAATTCCGGTCTCCC
DNA 2: TGGTGGCTACGACGGGATT
B20: CUCCCAU (DNA:RNA)
RNA: B1 RNA with G25C, C26U, A27C, G28C, G29C, G30A
DNA 1: CAATCTGAATTCCGGTCTCCC
DNA 2: TGGTGGCTACGACGGGATT
B21: GGCACAC (DNA:RNA)
RNA: B1 RNA with C26G, A27C, G28A, G29C, G30A, U31C
DNA 1: CAATCTGAATTCCGGTCTCCC
DNA 2: TGGTGGCTACGACGGGATT
B22: CGGCCCA (DNA:RNA)
RNA: B16 RNA with U25C, U27G, U28C, A29C, U30C, G31A
DNA 1: CAATCTGAATTCCGGTCTCCC
DNA 2: TGGTGGCTACGACGGGATT
B23: GGUACCU (DNA:RNA)
RNA: B1 RNA with C26G, A27U, G28A, G29C, G30C
DNA 1: CAATCTGAATTCCGGTCTCCC
DNA 2: TGGTGGCTACGACGGGATT
B24: CUUUAGU (DNA:RNA)
RNA: B16 RNA with U25C, G26U, U30G, G31U
DNA 1: CAATCTGAATTCCGGTCTCCC
DNA 2: TGGTGGCTACGACGGGATT
B25: AGCCAAG (DNA:RNA)
RNA: B16 RNA with U25A, U27C, U28C, U30A
DNA 1: CAATCTGAATTCCGGTCTCCC
DNA 2: TGGTGGCTACGACGGGATT
B26: UAUCGGU (DNA:RNA)
RNA: B1 RNA with G25U, C26A, A27U, G28C
DNA 1: CAATCTGAATTCCGGTCTCCC
DNA 2: TGGTGGCTACGACGGGATT
B27: UCCGAUC (DNA:RNA)
RNA: B16 RNA with G26C, U27C, U28G, G31C
DNA 1: CAATCTGAATTCCGGTCTCCC
DNA 2: TGGTGGCTACGACGGGATT
B28: AGGAGUU (DNA:RNA)
RNA: B1 RNA with G25A, C26G, A27G, G28A, G30U
DNA 1: CAATCTGAATTCCGGTCTCCC
DNA 2: TGGTGGCTACGACGGGATT
B29: UUAGUGU (DNA:RNA)
RNA: B1 RNA with G25U, C26U, G29U
DNA 1: CAATCTGAATTCCGGTCTCCC
DNA 2: TGGTGGCTACGACGGGATT
B30: CGCUGUC (DNA:RNA)
RNA: B16 RNA with U25C, U27C, A29G, G31C
DNA 1: CAATCTGAATTCCGGTCTCCC
DNA 2: TGGTGGCTACGACGGGATT
B31: CGGUAAA (DNA:RNA)
RNA: B16 RNA with U25C, U27G, U30A, G31A
DNA 1: CAATCTGAATTCCGGTCTCCC
DNA 2: TGGTGGCTACGACGGGATT

This assay has as its target T1, RBFOX1 RRM RbFoxmut (Fox-RRM*). Put plainly: EMSA; HiTS-Eq, 1 nM pool, 10 min; buffer printed only for the single-RNA assays: 10 mM Tris pH 7.5, 150 mM NaCl, 3.4 mM EDTA, 0.001% NP-40, 30 C. Conditions: tags: His6 N-terminal (pET28a); label: 5' 32P. Summed up:
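A pool of RNA with 7 randomized nucleotides, 5′-radiolabelled and with DNA-annealed flanks, was equilibrated at 1 nM for 10 min in 50 µL with purified RbFox RRM, wild type or mutant, across increasing protein concentrations. Free RNA was separated by 8% native PAGE, excised, reverse-transcribed, barcoded by PCR and sequenced. Relative association constants were obtained from read-count changes of each RNA species versus the control reaction and normalised to the cognate motif.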
Consider B1, for which the binding signal is 0.106 KA relative to UGCAUGU.
Next, B2: 0.102 KA relative to UGCAUGU; B3: 0.106 KA relative to UGCAUGU.
Regarding B4, the binding signal was 0.0658 KA relative to UGCAUGU.
The same measure for B5: 0.102 KA relative to UGCAUGU; for B6: 0.147 KA relative to UGCAUGU.
B7: the binding signal is 0.0668 KA relative to UGCAUGU.
Next, B8: 0.128 KA relative to UGCAUGU.
Next, B9: 0.141 KA relative to UGCAUGU.
Next, B10: 0.128 KA relative to UGCAUGU; B11: 0.0673 KA relative to UGCAUGU; B12: 0.0756 KA relative to UGCAUGU.
Consider B13, for which the binding signal was 0.109 KA relative to UGCAUGU.
With B14, the binding signal is 0.126 KA relative to UGCAUGU.
The same measure for B15: 0.0627 KA relative to UGCAUGU; for B16: 1.04 KA relative to UGCAUGU.
Next, B17: 0.0533 KA relative to UGCAUGU; B18: 0.0733 KA relative to UGCAUGU.
Next, B19: 0.056 KA relative to UGCAUGU; B20: 0.0551 KA relative to UGCAUGU; B21: 0.0968 KA relative to UGCAUGU.
Regarding B22, the binding signal was 0.058 KA relative to UGCAUGU.
Next, B23: 0.0791 KA relative to UGCAUGU; B24: 0.144 KA relative to UGCAUGU; B25: 0.102 KA relative to UGCAUGU.
For B26, the binding signal was 0.12 KA relative to UGCAUGU.
In the case of B27, the binding signal is 0.0412 KA relative to UGCAUGU.
Next, B28: 0.122 KA relative to UGCAUGU.
The same measure for B29: 0.166 KA relative to UGCAUGU; for B30: 0.263 KA relative to UGCAUGU; for B31: 0.0781 KA relative to UGCAUGU.

For the origin of these results see publication PMC9911399, “Two distinct binding modes provide the RNA-binding protein RbFox with extraordinary sequence specificity”.
